Assay results from article PMC4019984, “Kinase and channel activity of TRPM6 are co-ordinated by a dimerization motif and pocket interaction” (Biochemical Journal, 2014).
Like-named read-outs stand apart in the source and are kept apart here. No constants are given. Whether binding was seen depends on the method and setting. For some assays here: Binding seen in cells or lysates may run through a third protein. Some entries that bind do so weakly or less than the wild type. For some assays here: Tags and fused reporters may be left off the sequences shown.

T1: biotinylated dimerization motif peptide (wild-type) (human)
T1 sequence (peptide, biotin-C6 on the N-terminus): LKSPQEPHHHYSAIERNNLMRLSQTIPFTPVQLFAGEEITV

T2: biotinylated dimerization motif peptide, mutant (L1718A+L1721A) (human)
T2 sequence (peptide, biotin-C6 on the N-terminus): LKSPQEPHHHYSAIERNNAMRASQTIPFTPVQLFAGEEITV

T3: fluorescently labelled dimerization motif peptide, mutant (L1718A+L1721A), with C-terminal linker GGCCPGCC (human)
T3 sequence (peptide, labelled with Lumio Green): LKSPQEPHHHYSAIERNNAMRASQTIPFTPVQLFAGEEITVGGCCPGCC


Key:
[1] = biological target: T1, biotinylated dimerization motif peptide (wild-type) (human); assay: pull-down; 1–5 mg HEK-293 lysate incubated with 3 μg biotinylated peptide 10 min at 4°C, then streptavidin beads 5 min; washed with lysis buffer containing 0.15 M NaCl and buffer A; immunoblot with anti-GST or anti-FLAG; only the target purified
[2] = biological target: T1, biotinylated dimerization motif peptide (wild-type) (human); assay: as above; remark: listed apart in the source
[3] = biological target: T2, biotinylated dimerization motif peptide, mutant (L1718A+L1721A) (human); assay: as above
[4] = biological target: T3, fluorescently labelled dimerization motif peptide, mutant (L1718A+L1721A), with C-terminal linker GGCCPGCC (human); assay: fluorescence polarisation; 100 nM Lumio Green-labelled peptide with increasing concentrations of GST-TRPM6 kinase fragment; room temperature; 25 mM Tris/HCl pH 7.5, 200 mM NaCl, 5 mM 2-mercaptoethanol; one-site specific binding with Hill slope (Hill slope of 1.0); both purified

binding [1]	binding [2]	also measured	Molecule
binds			full-length FLAG-tagged TRPM6 L1718A+L1721A (from UniProt Q9BX84 1-2022)
no binding			full-length FLAG-tagged TRPM6 kinase-inactive (K1804R) (from UniProt Q9BX84 1-2022)
no binding			full-length FLAG-tagged TRPM6 wild-type (from UniProt Q9BX84 1-2022)
	binds	binding [3]: no binding	GST-tagged TRPM6-(1730–end), expressed in HEK-293 cells (domain or fragment, UniProt Q9BX84 1730-2022) VQLFAGEEITVYRLEESSPLNLDKSMSSWSQRGRAAMIQVLSREEMDGGLRKAMRVVSTWSEDDILKPGQVFIVKSFLPEVVRTWHKIFQESTVLHLCLREIQQQRAAQKLIYTFNQVKPQTIPYTPRFLEVFLIYCHSANQWLTIEKYMTGEFRKYNNNNGDEITPTNTLEELMLAFSHWTYEYTRGELLVLDLQGVGENLTDPSVIKPEVKQSRGMVFGPANLGEDAIRNFIAKHHCNSCCRKLKLPDLKRNDYSPERINSTFGLEIKIESAEEPPARETGRNSPEDDMQL
		binding [4]: no binding	GST-tagged TRPM6-(1730–end), E. coli-purified (domain or fragment, UniProt Q9BX84 1730-2022) VQLFAGEEITVYRLEESSPLNLDKSMSSWSQRGRAAMIQVLSREEMDGGLRKAMRVVSTWSEDDILKPGQVFIVKSFLPEVVRTWHKIFQESTVLHLCLREIQQQRAAQKLIYTFNQVKPQTIPYTPRFLEVFLIYCHSANQWLTIEKYMTGEFRKYNNNNGDEITPTNTLEELMLAFSHWTYEYTRGELLVLDLQGVGENLTDPSVIKPEVKQSRGMVFGPANLGEDAIRNFIAKHHCNSCCRKLKLPDLKRNDYSPERINSTFGLEIKIESAEEPPARETGRNSPEDDMQL
	no binding		GST-tagged TRPM6-(1730–end) L1743A, expressed in HEK-293 cells (domain or fragment, UniProt Q9BX84 1730-2022) VQLFAGEEITVYRAEESSPLNLDKSMSSWSQRGRAAMIQVLSREEMDGGLRKAMRVVSTWSEDDILKPGQVFIVKSFLPEVVRTWHKIFQESTVLHLCLREIQQQRAAQKLIYTFNQVKPQTIPYTPRFLEVFLIYCHSANQWLTIEKYMTGEFRKYNNNNGDEITPTNTLEELMLAFSHWTYEYTRGELLVLDLQGVGENLTDPSVIKPEVKQSRGMVFGPANLGEDAIRNFIAKHHCNSCCRKLKLPDLKRNDYSPERINSTFGLEIKIESAEEPPARETGRNSPEDDMQL
	no binding		GST-tagged TRPM6-(1730–end) Q1832K, expressed in HEK-293 cells (domain or fragment, UniProt Q9BX84 1730-2022) VQLFAGEEITVYRLEESSPLNLDKSMSSWSQRGRAAMIQVLSREEMDGGLRKAMRVVSTWSEDDILKPGQVFIVKSFLPEVVRTWHKIFQESTVLHLCLREIKQQRAAQKLIYTFNQVKPQTIPYTPRFLEVFLIYCHSANQWLTIEKYMTGEFRKYNNNNGDEITPTNTLEELMLAFSHWTYEYTRGELLVLDLQGVGENLTDPSVIKPEVKQSRGMVFGPANLGEDAIRNFIAKHHCNSCCRKLKLPDLKRNDYSPERINSTFGLEIKIESAEEPPARETGRNSPEDDMQL
	no binding		GST-tagged TRPM6-(1730–end) A1836N, expressed in HEK-293 cells (domain or fragment, UniProt Q9BX84 1730-2022) VQLFAGEEITVYRLEESSPLNLDKSMSSWSQRGRAAMIQVLSREEMDGGLRKAMRVVSTWSEDDILKPGQVFIVKSFLPEVVRTWHKIFQESTVLHLCLREIQQQRNAQKLIYTFNQVKPQTIPYTPRFLEVFLIYCHSANQWLTIEKYMTGEFRKYNNNNGDEITPTNTLEELMLAFSHWTYEYTRGELLVLDLQGVGENLTDPSVIKPEVKQSRGMVFGPANLGEDAIRNFIAKHHCNSCCRKLKLPDLKRNDYSPERINSTFGLEIKIESAEEPPARETGRNSPEDDMQL
	no binding		GST-tagged TRPM6-(1730–end) L1840A, expressed in HEK-293 cells (domain or fragment, UniProt Q9BX84 1730-2022) VQLFAGEEITVYRLEESSPLNLDKSMSSWSQRGRAAMIQVLSREEMDGGLRKAMRVVSTWSEDDILKPGQVFIVKSFLPEVVRTWHKIFQESTVLHLCLREIQQQRAAQKAIYTFNQVKPQTIPYTPRFLEVFLIYCHSANQWLTIEKYMTGEFRKYNNNNGDEITPTNTLEELMLAFSHWTYEYTRGELLVLDLQGVGENLTDPSVIKPEVKQSRGMVFGPANLGEDAIRNFIAKHHCNSCCRKLKLPDLKRNDYSPERINSTFGLEIKIESAEEPPARETGRNSPEDDMQL
	no binding		GST-tagged TRPM6-(1730–end) L1919Q, expressed in HEK-293 cells (domain or fragment, UniProt Q9BX84 1730-2022) VQLFAGEEITVYRLEESSPLNLDKSMSSWSQRGRAAMIQVLSREEMDGGLRKAMRVVSTWSEDDILKPGQVFIVKSFLPEVVRTWHKIFQESTVLHLCLREIQQQRAAQKLIYTFNQVKPQTIPYTPRFLEVFLIYCHSANQWLTIEKYMTGEFRKYNNNNGDEITPTNTLEELMLAFSHWTYEYTRGEQLVLDLQGVGENLTDPSVIKPEVKQSRGMVFGPANLGEDAIRNFIAKHHCNSCCRKLKLPDLKRNDYSPERINSTFGLEIKIESAEEPPARETGRNSPEDDMQL
